From PMC6104169
These are yes or no findings as the source states them, for the method shown. For some assays here: Binding seen in cells or lysates may run through a third protein. Some entries that bind do so weakly or less than the wild type. For some assays here: Tags and fused reporters may be left off the sequences shown. Values belong to the molecule of their own block, whether it stands above or below them.

Sequences of proteins named here, by UniProt entry; tags and fusion partners are left off. A change or cut given only in a name is not applied to a line headed by its entry. A line that says so, or that is headed by a name, gives the form on record, which may keep a tag or linker. Residues count along the entry.
UniProt P42227: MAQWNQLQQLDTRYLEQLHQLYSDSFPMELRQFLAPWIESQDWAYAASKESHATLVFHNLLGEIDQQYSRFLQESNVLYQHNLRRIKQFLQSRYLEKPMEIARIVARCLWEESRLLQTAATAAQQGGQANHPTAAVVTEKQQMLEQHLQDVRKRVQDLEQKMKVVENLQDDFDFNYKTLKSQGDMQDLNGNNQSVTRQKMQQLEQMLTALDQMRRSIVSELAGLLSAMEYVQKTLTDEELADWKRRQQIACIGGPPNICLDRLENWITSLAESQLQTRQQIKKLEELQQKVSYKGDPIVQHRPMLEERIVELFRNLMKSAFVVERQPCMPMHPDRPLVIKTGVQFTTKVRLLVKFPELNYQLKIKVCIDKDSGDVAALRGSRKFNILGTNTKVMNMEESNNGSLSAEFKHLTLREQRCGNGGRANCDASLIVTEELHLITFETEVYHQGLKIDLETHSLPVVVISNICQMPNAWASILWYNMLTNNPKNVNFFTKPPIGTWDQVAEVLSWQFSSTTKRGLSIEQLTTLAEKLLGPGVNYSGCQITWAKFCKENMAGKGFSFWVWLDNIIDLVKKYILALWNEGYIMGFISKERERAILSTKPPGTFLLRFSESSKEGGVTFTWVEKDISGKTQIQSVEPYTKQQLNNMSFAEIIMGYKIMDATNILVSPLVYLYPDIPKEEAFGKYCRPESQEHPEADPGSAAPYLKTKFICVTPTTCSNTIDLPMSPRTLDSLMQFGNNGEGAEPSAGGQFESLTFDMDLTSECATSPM
HA-tagged NTD of STAT3(1–134): residues 1-134 of P42227
BD-134K (STAT3 N-terminal domain, 1–134 aa, change from E to K at position 16) (P42227, form named): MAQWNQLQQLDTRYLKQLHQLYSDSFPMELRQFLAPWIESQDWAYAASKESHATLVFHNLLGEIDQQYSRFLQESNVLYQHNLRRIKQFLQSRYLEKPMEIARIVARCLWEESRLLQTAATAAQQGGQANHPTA
UniProt Q9WVL2: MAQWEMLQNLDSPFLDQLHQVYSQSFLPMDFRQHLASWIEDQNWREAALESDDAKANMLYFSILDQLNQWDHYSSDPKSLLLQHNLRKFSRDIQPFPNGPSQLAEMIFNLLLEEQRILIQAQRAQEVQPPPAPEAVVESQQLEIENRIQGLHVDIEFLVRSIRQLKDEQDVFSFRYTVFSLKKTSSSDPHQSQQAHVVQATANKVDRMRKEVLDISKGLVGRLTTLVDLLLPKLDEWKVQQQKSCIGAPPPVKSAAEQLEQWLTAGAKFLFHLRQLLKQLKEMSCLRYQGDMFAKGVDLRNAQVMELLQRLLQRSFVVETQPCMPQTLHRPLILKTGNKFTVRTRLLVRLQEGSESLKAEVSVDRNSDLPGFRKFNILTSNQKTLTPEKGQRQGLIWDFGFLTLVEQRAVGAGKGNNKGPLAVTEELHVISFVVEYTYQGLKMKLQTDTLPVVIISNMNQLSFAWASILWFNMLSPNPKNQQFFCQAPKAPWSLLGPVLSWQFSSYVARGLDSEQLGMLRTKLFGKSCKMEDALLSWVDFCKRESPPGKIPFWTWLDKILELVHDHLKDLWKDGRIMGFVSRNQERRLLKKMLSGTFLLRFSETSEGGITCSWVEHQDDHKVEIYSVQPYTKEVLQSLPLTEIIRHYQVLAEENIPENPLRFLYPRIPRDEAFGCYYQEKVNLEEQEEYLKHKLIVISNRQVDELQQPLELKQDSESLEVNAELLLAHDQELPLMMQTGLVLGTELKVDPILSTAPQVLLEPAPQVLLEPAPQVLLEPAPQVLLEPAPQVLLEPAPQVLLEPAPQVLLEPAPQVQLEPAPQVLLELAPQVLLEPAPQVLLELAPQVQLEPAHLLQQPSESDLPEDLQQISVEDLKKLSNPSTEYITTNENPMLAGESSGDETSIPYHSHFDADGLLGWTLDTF

Experiments:
[1] = target: T1, endogenous PLSCR2 (ML-1 cells) (mouse (endogenous in ML-1)) (UniProt Q9DCW2); experiment: co-IP; ML-1 cells stimulated with mouse IFN-α4 (1,000 U/ml) for the indicated times or untreated; immunoprecipitated with anti-PLSCR2 antibody, immunoblotted for pSTAT3 and STAT3; endogenous proteins
T1 sequence: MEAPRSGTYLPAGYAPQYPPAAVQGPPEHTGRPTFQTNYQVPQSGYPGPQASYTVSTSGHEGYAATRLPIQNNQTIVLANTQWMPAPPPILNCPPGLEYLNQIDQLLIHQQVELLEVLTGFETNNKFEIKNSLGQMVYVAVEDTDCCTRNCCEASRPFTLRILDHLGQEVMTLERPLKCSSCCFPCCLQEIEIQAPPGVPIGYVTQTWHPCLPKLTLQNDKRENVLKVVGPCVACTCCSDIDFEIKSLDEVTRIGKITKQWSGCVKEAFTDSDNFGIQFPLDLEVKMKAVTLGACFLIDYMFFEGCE

[2] = target: HA-tagged NTD of STAT3(1–134) (UniProt P42227); experiment: co-IP; HEK293T cells cotransfected with HA-tagged and myc-tagged constructs; rabbit anti-HA antibody on protein A agarose, IP lysis buffer (300 mM NaCl, 50 mM HEPES pH 7.6, 1% Triton X-100), 4°C overnight; immunoblot with anti-myc and anti-HA; in Figure 1C with or without human IFN-α2 (1,000 U/ml, 30 m)
[3] = target: HA-tagged full-length STAT3(1–770) (UniProt P42227); experiment: as above
[4] = target: T2, HA-tagged murine IRF9 (pLPC-FH2) (mouse) (UniProt Q61179); experiment: as above
T2 sequence: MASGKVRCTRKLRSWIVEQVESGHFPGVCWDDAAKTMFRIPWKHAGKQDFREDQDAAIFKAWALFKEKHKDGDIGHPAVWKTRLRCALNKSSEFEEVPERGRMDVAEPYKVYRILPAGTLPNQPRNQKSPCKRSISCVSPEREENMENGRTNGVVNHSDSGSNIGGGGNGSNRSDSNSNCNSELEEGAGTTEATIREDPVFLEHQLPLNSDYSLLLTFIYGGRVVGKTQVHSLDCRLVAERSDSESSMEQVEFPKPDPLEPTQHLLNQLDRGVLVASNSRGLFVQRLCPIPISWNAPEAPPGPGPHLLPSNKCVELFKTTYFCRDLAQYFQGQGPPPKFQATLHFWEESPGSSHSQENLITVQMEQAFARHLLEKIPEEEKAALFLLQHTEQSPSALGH

[5] = target: T3, HA-tagged murine STAT1 (pLPC-FH2) (mouse) (UniProt P42225); experiment: as above
T3 sequence: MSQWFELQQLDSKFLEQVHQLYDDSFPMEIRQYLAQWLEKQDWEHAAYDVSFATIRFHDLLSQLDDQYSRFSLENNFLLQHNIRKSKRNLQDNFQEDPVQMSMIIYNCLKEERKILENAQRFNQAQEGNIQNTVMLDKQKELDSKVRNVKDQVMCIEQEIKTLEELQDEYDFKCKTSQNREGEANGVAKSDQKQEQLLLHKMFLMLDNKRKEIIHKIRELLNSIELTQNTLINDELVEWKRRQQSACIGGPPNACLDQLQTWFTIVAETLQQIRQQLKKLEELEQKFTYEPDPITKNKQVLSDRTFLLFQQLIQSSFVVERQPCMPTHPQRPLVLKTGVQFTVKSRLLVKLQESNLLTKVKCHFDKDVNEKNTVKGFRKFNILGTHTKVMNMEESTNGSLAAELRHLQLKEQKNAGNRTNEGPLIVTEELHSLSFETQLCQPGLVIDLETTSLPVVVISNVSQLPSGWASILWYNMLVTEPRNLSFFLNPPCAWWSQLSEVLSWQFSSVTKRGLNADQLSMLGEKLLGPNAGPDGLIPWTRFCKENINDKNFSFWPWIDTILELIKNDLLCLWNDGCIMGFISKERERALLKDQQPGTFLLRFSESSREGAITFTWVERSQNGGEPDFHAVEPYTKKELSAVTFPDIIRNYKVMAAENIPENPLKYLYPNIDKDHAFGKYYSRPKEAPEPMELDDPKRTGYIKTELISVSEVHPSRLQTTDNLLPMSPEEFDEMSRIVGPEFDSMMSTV

[6] = target: HA-tagged murine STAT2 (pLPC-FH2) (mouse) (UniProt Q9WVL2); experiment: as above
[7] = target: endogenous STAT2 (ML-1 nuclear extracts) (mouse (endogenous in ML-1)) (UniProt Q9WVL2); experiment: co-IP; endogenous PLSCR2 co-immunoprecipitated by anti-STAT2 or anti-STAT1 antibody (Figure S6D; legend not shown)
[8] = target: HA-tagged full-length STAT3(1–770) (UniProt P42227); experiment: co-IP; prey fragments expressed in HEK293T cells, tested with full-length STAT3 or STAT3ΔN (Figure S1F; legend not shown)
[9] = target: BD-134K (STAT3 N-terminal domain, 1–134 aa, change from E to K at position 16) (mouse) (UniProt P42227); experiment: two-hybrid; yeast two-hybrid screen; bait BD-134K against a normalized mouse cDNA library, ~2 × 10^6 transformants

Molecule: endogenous STAT3 (ML-1 cells) (from UniProt P42227 1-770)
binding [1]: binds

Molecule: endogenous tyrosine-phosphorylated STAT3 (pY-STAT3, ML-1 cells treated with IFN-α4) (from UniProt P42227 1-770)
binding [1]: binds

B2: endogenous PLSCR2 (ML-1 cells) (protein, UniProt Q9DCW2 1-307)
chain: T1 sequence
binding [7]: binds

B3: myc-PLSCR2(1–116) (NTD) (domain or fragment, UniProt Q9DCW2 1-116)
chain: MEAPRSGTYLPAGYAPQYPPAAVQGPPEHTGRPTFQTNYQVPQSGYPGPQASYTVSTSGHEGYAATRLPIQNNQTIVLANTQWMPAPPPILNCPPGLEYLNQIDQLLIHQQVELLE
binding [2]: no binding

B5: PLSCR2 prey fragment (109–307 aa), yeast two-hybrid (domain or fragment, UniProt Q9DCW2 109-307)
chain: HQQVELLEVLTGFETNNKFEIKNSLGQMVYVAVEDTDCCTRNCCEASRPFTLRILDHLGQEVMTLERPLKCSSCCFPCCLQEIEIQAPPGVPIGYVTQTWHPCLPKLTLQNDKRENVLKVVGPCVACTCCSDIDFEIKSLDEVTRIGKITKQWSGCVKEAFTDSDNFGIQFPLDLEVKMKAVTLGACFLIDYMFFEGCE
binding [9]: binds

Results, then the molecule that gave them:

binding [2]: binds
binding [3]: binds
binding [4]: no binding
binding [5]: no binding
binding [6]: binds
B1: myc-tagged full-length murine PLSCR2(1–307) (protein, UniProt Q9DCW2 1-307)
chain: T1 sequence

binding [8]: binds
binding [2]: binds
B4: myc-PLSCR2(109–307) (ΔN) (domain or fragment, UniProt Q9DCW2 109-307)
chain: B5 chain

binding [2]: binds
B6: myc-PLSCR2(171–307) (domain or fragment, UniProt Q9DCW2 171-307)
chain: MTLERPLKCSSCCFPCCLQEIEIQAPPGVPIGYVTQTWHPCLPKLTLQNDKRENVLKVVGPCVACTCCSDIDFEIKSLDEVTRIGKITKQWSGCVKEAFTDSDNFGIQFPLDLEVKMKAVTLGACFLIDYMFFEGCE

binding [2]: no binding
B7: myc-PLSCR2(188–307) (domain or fragment, UniProt Q9DCW2 188-307)
chain: LQEIEIQAPPGVPIGYVTQTWHPCLPKLTLQNDKRENVLKVVGPCVACTCCSDIDFEIKSLDEVTRIGKITKQWSGCVKEAFTDSDNFGIQFPLDLEVKMKAVTLGACFLIDYMFFEGCE
